Measured values: patent US20240158408A1, “Nitrogen-Containing Heterocyclic Compound, Pharmaceutical Compositions thereof and Use thereof” (280 Bio, Inc., priority 2022, published 2024)

Molecular target: T1, PI3Kα H1047R (Homo sapiens (Human), UniProt P42336, H1047R)
Assay: biochemical
Settings: PI3KαH1047RIC50, ADP-Glo; ATP 25 μM; PIP2 50 μg/mL; 1 hour at room temperature

First: O=C(Nc1cc(Br)c2c3c1C(c1cc(F)ccc1Cl)NC(=O)N3CC2)c1cc(F)cc(C(F)(F)F)c1 (single isomer, unassigned) [YL079-P1]
Second: O=C(Nc1cc(O)c2c3c1C(c1cc(F)ccc1Cl)NC(=O)N3CC2)c1cc(F)cc(C(F)(F)F)c1 (stereo not drawn) [YL076]
The IC50 of the first is higher: 250 to 10000 nM for the first, under 250 nM for the second.

Compared with O=C(Nc1cc(Br)c2c3c1C(c1cc(F)ccc1Cl)NC(=O)N3CC2)c1cc(F)cc(C(F)(F)F)c1 (single isomer, unassigned) [YL079-P2], COc1cc(NC(=O)c2cc(F)cc(C(F)(F)F)c2)c2c3c1CCN3C(=O)NC2c1cc(F)ccc1Cl (stereo not drawn) [YL078] is higher in IC50: under 250 nM for the first, 250 to 10000 nM for the second. The first is the more potent here.

First: N#Cc1cc(NC(=O)c2cc(F)cc(C(F)(F)F)c2)c2c3c1CCN3C(=O)NC2c1cc(Cl)ccc1Cl (single isomer, unassigned) [YL101-P1]
Second: CC(C)(O)c1cc(NC(=O)c2cc(F)cc(C(F)(F)F)c2)c2c3c1CCN3C(=O)NC2c1cc(F)ccc1Cl (stereo not drawn) [YL089]
The IC50 of the first is higher: over 10000 nM for the first, 250 to 10000 nM for the second.

Compared with N#Cc1cc(NC(=O)c2cc(F)cc(C(F)(F)F)c2)c2c3c1CCN3C(=O)NC2c1cc(Cl)ccc1Cl (single isomer, unassigned) [YL101-P2], N#Cc1c(-c2cc(NC(=O)c3cc(F)cc(C(F)(F)F)c3)c3c4c2CCN4C(=O)NC3c2cc(Cl)ccc2Cl)ccc2ncnn12 (single isomer, unassigned) [YL109-P1] is higher in IC50: under 250 nM for the first, over 10000 nM for the second.

Cn1nc2c(C#N)cc(NC(=O)c3cc(F)cc(C(F)(F)F)c3)c3c2c1C(=O)NC3c1cc(F)ccc1Cl (single isomer, unassigned) [YL102-P1] and Cn1nc2c(C#N)cc(NC(=O)c3cc(F)cc(C(F)(F)F)c3)c3c2c1C(=O)NC3c1cc(Cl)ccc1Cl (single isomer, unassigned) [YL111-P1] cannot be ordered by IC50: over 10000 nM for the first, over 10000 nM for the second.

Cn1nc2c(C#N)cc(NC(=O)c3cc(F)cc(C(F)(F)F)c3)c3c2c1C(=O)NC3c1cc(F)ccc1Cl (single isomer, unassigned) [YL102-P2] and Cn1nc2c(C#N)cc(NC(=O)c3cc(F)cc(C(F)(F)F)c3)c3c2c1C(=O)NC3c1cc(Cl)ccc1Cl (single isomer, unassigned) [YL111-P2] cannot be ordered by IC50: under 250 nM for the first, under 250 nM for the second.

Compared with N#Cc1c(-c2cc(NC(=O)c3cc(F)cc(C(F)(F)F)c3)c3c4c2CCN4C(=O)NC3c2cc(F)ccc2Cl)ccc2ncnn12 (single isomer, unassigned) [YL108-P1], N#Cc1c(-c2cc(NC(=O)c3cc(F)cc(C(F)(F)F)c3)c3c4c2CCN4C(=O)NC3c2cc(Cl)ccc2Cl)ccc2ncnn12 (single isomer, unassigned) [YL109-P2] is lower in IC50: over 10000 nM for the first, under 250 nM for the second. The second is the more potent here.

N#Cc1c(-c2cc(NC(=O)c3cc(F)cc(C(F)(F)F)c3)c3c4c2CCN4C(=O)NC3c2cc(F)ccc2Cl)ccc2ncnn12 (single isomer, unassigned) [YL108-P2] and N#Cc1c(-c2cc(NC(=O)c3cc(F)cc(C(F)(F)F)c3)c3c4c2CCN4C(=O)NC3c2cc(F)ccc2Cl)cc(F)c2ncnn12 (stereo not drawn) [YL149] cannot be ordered by IC50: under 250 nM for the first, under 250 nM for the second.

O=C(Nc1cc(-c2cn[nH]c2C(F)F)c2c3c1C(c1cc(F)ccc1Cl)NC(=O)N3CC2)c1cc(F)cc(C(F)(F)F)c1 (stereo not drawn) [YL075] and O=C(Nc1cc(-c2nnn[nH]2)c2c3c1C(c1cc(F)ccc1Cl)NC(=O)N3CC2)c1cc(F)cc(C(F)(F)F)c1 (stereo not drawn) [YL085] fall in the same range of IC50: 250 to 10000 nM for the first, 250 to 10000 nM for the second.

O=C(Nc1cc(-n2ccc(C(F)(F)F)n2)c2c3c1C(c1cc(F)ccc1Cl)NC(=O)N3CC2)c1cc(F)cc(C(F)(F)F)c1 (stereo not drawn) [YL080] and O=C(Nc1cc(-n2cc(C(F)(F)F)nn2)c2c3c1C(c1cc(F)ccc1Cl)NC(=O)N3CC2)c1cc(F)cc(C(F)(F)F)c1 (stereo not drawn) [YL083] fall in the same range of IC50: 250 to 10000 nM for the first, 250 to 10000 nM for the second.

O=C(Nc1cc(-n2cc(C(F)(F)F)cn2)c2c3c1C(c1cc(F)ccc1Cl)NC(=O)N3CC2)c1cc(F)cc(C(F)(F)F)c1 (stereo not drawn) [YL081] and O=C(Nc1cc(-n2cc(F)cn2)c2c3c1C(c1cc(F)ccc1Cl)NC(=O)N3CC2)c1cc(F)cc(C(F)(F)F)c1 (stereo not drawn) [YL082] fall in the same range of IC50: 250 to 10000 nM for the first, 250 to 10000 nM for the second.

CP(C)(=O)c1cc(NC(=O)c2cc(F)cc(C(F)(F)F)c2)c2c3c1CCN3C(=O)NC2c1cc(F)ccc1Cl (stereo not drawn) [YL084] and O=C1NC(c2cc(F)ccc2Cl)c2c(Nc3nccc4c(C(F)(F)F)cc(F)cc34)cc(NC(=O)C(F)(F)F)c3c2N1CC3 (stereo not drawn) [YL087] fall in the same range of IC50: 250 to 10000 nM for the first, 250 to 10000 nM for the second.

Nc1cc(-c2nc3cc(Cl)ccc3[nH]2)c2c3c1CCN3C(=O)NC2c1cc(F)ccc1Cl (stereo not drawn) [YL099] and Nc1cc(-c2nc3cc(Cl)c(Cl)cc3[nH]2)c2c3c1CCN3C(=O)NC2c1cc(F)ccc1Cl (stereo not drawn) [YL100] fall in the same range of IC50: 250 to 10000 nM for the first, 250 to 10000 nM for the second.

Cn1nc2c(-c3cc(C(F)(F)F)n[nH]3)cc(NC(=O)c3cc(F)cc(C(F)(F)F)c3)c3c2c1C(=O)NC3c1cc(F)ccc1Cl (stereo not drawn) [YL105] and Cn1nc2c(-c3c[nH]nc3F)cc(NC(=O)c3cc(F)cc(C(F)(F)F)c3)c3c2c1C(=O)NC3c1cc(F)ccc1Cl (stereo not drawn) [YL113] fall in the same range of IC50: 250 to 10000 nM for the first, 250 to 10000 nM for the second.

Cn1nc2c(-c3cn[nH]c3C(F)F)cc(NC(=O)c3cc(F)cc(C(F)(F)F)c3)c3c2c1C(=O)NC3c1cc(F)ccc1Cl (stereo not drawn) [YL112] showed an IC50 of 250 to 10000 nM.

Molecular target: T1, PI3Kα H1047R
Assay: not given
Settings: read-out: PI3KαH1047RIC50; ADP-Glo; ATP 25 μM; PIP2 50 μg/mL; 1 hour at room temperature

For N#Cc1cc2ncnn2cc1-c1cc(NC(=O)c2cc(F)cc(C(F)(F)F)c2)c2c3c1CCN3C(=O)NC2c1cc(F)ccc1Cl (stereo not drawn) [YL153], the IC50 was under 250 nM.
